The whole screen tested about 310,000 compounds, of which about 2,200 (0.71%) showed an effect of 50% or more. Effects have a minus sign here. Some of the results follow.

In this assay the target is human ether-à-go-go-related gene (hERG) potassium channel (human, UniProt Q12809). In words: primary screen, population patch clamp on CHO cells stably expressing hERG.
Chain of human ether-à-go-go-related gene (hERG) potassium channel (Q12809 whole entry, looked up): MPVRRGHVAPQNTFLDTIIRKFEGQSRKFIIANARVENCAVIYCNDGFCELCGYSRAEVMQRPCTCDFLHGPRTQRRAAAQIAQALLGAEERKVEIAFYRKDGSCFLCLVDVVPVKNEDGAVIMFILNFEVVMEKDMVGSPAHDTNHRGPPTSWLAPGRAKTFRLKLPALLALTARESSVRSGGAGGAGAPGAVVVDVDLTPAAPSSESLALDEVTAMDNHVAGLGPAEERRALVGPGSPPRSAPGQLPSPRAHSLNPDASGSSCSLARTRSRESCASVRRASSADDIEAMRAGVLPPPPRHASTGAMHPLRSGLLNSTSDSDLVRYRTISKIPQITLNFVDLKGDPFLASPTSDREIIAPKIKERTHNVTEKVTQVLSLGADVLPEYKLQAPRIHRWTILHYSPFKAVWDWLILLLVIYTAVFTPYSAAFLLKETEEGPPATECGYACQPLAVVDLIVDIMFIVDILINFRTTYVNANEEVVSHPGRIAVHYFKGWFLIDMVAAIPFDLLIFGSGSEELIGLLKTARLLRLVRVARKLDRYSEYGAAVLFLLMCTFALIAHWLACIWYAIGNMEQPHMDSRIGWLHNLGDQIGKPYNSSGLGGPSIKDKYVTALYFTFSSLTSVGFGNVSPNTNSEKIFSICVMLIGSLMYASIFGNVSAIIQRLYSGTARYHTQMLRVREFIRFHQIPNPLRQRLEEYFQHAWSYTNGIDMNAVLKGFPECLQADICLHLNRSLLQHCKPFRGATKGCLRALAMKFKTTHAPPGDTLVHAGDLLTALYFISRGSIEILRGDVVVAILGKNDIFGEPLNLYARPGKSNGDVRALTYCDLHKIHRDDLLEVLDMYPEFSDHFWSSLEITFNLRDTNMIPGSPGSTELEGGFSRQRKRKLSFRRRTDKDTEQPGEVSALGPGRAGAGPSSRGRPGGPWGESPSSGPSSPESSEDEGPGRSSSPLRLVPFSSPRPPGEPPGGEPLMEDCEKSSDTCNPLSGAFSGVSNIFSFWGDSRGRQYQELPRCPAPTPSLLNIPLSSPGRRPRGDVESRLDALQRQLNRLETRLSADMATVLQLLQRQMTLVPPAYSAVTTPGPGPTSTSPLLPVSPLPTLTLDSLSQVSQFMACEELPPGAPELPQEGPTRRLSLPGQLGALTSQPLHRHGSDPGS
For `CCOC(=O)c1oc2ccccc2c1CN1CCCCC1.Cl`, the “hERG current change (%, negative = inhibition) at 1uM” value is listed as -9.66%.
To `Cc1ccc(NC(=O)COc2cccc(-n3cnnn3)c2)cc1[N+](=O)[O-]` belongs 9.32%; to `CC1(C)OC(=O)C(=C2CCCN2)C(=O)O1`, 20.2%; to `Cc1ccc(C2CCN(C(=S)Nc3cccc(Cl)c3)C2)cc1` (centres unmarked), 12.2%.
In the case of `CC(C)(C)Cc1nnc(NS(=O)(=O)c2ccc(F)cc2)s1` it was 0.152%; in that of `CCCNC(=O)CCc1c(C)nc2c(c(C)nn2-c2ccccc2)c1C`, 9.19%; in that of `OCCC1CN(Cc2ccc3c(c2)CCO3)CCN1Cc1ccc(F)cc1` (centres unmarked), -31.8%.
To `CC1(C)CC(=O)C=C(N=CC2=C(O)CC(C)(C)CC2=O)C1` belongs 7.45%; to `CC(=O)Nc1cc(C(=O)c2ccccc2)ccc1N1CCOCC1`, -18.4%; to `Cc1ccnc(NS(=O)(=O)c2ccc(NS(=O)(=O)c3ccc(Br)cc3)cc2)n1`, 16.1%.
Turning to `O=C(CSc1nc(-c2ccccc2)c(-c2ccccc2)[nH]1)Nc1nccs1`, the “hERG current change (%, negative = inhibition) at 1uM” value was -2.45%.
To `CCCn1c(SCC(=O)c2c(N)n(C3CC3)c(=O)[nH]c2=O)nc2cc(S(N)(=O)=O)ccc21` belongs 2.68%; to `CC1CN(CCc2ccccc2)CC(C)O1` (centres unmarked), 15.6%; to `COc1ccc(S(=O)(=O)N2CCC(C(=O)N[C@H](C(=O)NC3CCCC3)C(C)C)CC2)cc1`, 10.1%.
To `COC(=O)c1oc2ccccc2c1NC(=O)/C=C/C(=O)O` belongs 6.91%; to `CCCC(=O)Nc1nnc(/C=C/c2ccc(OC)cc2)s1`, 19%.
On to `O=C(Nc1ccccc1F)C(=O)c1cn(CC(=O)N2CCCCC2)c2ccccc12`, for which the “hERG current change (%, negative = inhibition) at 1uM” value is recorded as 9.28%.
In the case of `NS(=O)(=O)c1ccc(CCNC(=O)CSc2ncnc3ccccc23)cc1` it was 19.3%; in that of `Cc1nn(-c2ccc(F)cc2)c(C)c1NS(=O)(=O)c1ccc(Cl)cc1`, 12.6%.
In the case of `COc1cccc(-n2c(CN3CCN(c4cccc(C)c4)C(C)C3)nc3ccc([N+](=O)[O-])cc3c2=O)c1` (centres unmarked) it was 0.326%.
To `Cc1ccccc1-n1nnnc1SCC(C)C` belongs 12.1%; to `N#Cc1nc(COc2ccc(-c3ccccc3)cc2)oc1NCc1cccnc1`, -11.5%; to `C=C(C)CSc1nc2sc3c(c2c(=O)n1C1CCCCC1)CCN(C)C3`, 4.06%.
`CCOc1ccccc1Nc1nnc(SCc2nnc(-c3cc(OC)c(OC)c(OC)c3)o2)s1`: the “hERG current change (%, negative = inhibition) at 1uM” value is reported as 14.8%.
To `COC(=O)CN(C(=S)Nc1ccc(F)cc1)C1CC(=O)N(c2ccccc2)C1=O` (centres unmarked) belongs 7.56%; to `Cc1ccc(CSCC(=O)NN=C2CCN(C)CC2)cc1`, 5.81%.
To `Cc1cc(Sc2ncnc(N)c2[N+](=O)[O-])ncn1` belongs 13%; to `CCCCN(C(=O)C1CCC1)c1c(N)n(Cc2ccccc2)c(=O)[nH]c1=O`, -3.05%.
In the case of `CCOC(=O)c1sc(NC(=O)CSc2nccc(C)n2)nc1C` it was 3.98%.
Take `CCOC(=O)NC(NCc1cccc(C(F)(F)F)c1)(C(F)(F)F)C(F)(F)F`: the “hERG current change (%, negative = inhibition) at 1uM” value amounted to 3.93%.
Turning to `C/C(=N\OC(=O)c1ccc(F)cc1)c1sc(-c2ccc(Cl)cc2)nc1C`, the “hERG current change (%, negative = inhibition) at 1uM” value came out at 9.67%.
In the case of `CCCNC(=O)C(Cc1ccccc1)NS(=O)(=O)c1ccc2c(c1)CCC(=O)N2` (centres unmarked) it was 7.16%; in that of `COc1ccc(CCNC(=O)/C=C/c2ccc(OC)c(S(=O)(=O)N3CCOCC3)c2)cc1`, 1.69%.
To `Clc1nssc1=Nc1nncs1` belongs 11.8%.
In the case of `Cc1cccc(N2C(=O)CC(SC(=Nc3ccccc3)Nc3ccccc3)C2=O)c1` (centres unmarked) it was 3.93%; in that of `Cc1onc(-c2c(F)cccc2Cl)c1C(=O)NCc1ccccc1`, 8.18%; in that of `O=C(c1ccc(=O)[nH]n1)N1CCc2ccccc2C1`, 6.05%.
Turning to `COc1ccccc1CNC(=O)CCC(=O)N1CCOc2ccc(C)cc21`, the “hERG current change (%, negative = inhibition) at 1uM” value was -1.63%.
To `O=C(CCN1C(=O)C2C3C=CC(C3)C2C1=O)N1CCN(c2ccc(F)cc2)CC1` (centres unmarked) belongs -5.37%.
To `CCNC(=S)Nc1ccc(Cc2ccncc2)cc1` belongs -6.12%; to `Cc1cc(C)cc(OCC(=O)Nc2cccc(C(=O)O)c2)c1`, 19.6%; to `Cc1ccc(S(=O)(=O)N2CCN(CC(O)c3ccccc3)CC2)cc1` (centres unmarked), 0.165%.
To `Cc1occc1-c1nnc(SCC(=O)N(C)CCC#N)n1N` belongs 8.91%; to `CCC(C)[C@H](NC(=O)OC(C)(C)C)C(=O)NCC1CCC(C(=O)N[C@@H](Cc2ccccc2)C(=O)O)CC1` (some centres unmarked), 13.6%.

Source of the values: paper PMC4336329 (PLoS ONE, 2015).
